Results taken from PubChem BioAssay (NCATS).
Inconclusive means that the source gave no clear call. Such entries were picked first, then a sample of the others. For part of these data: No potency is given beside an inconclusive call; the fits are too rough. Activity calls are given as the source filed them. Unless noted, calls come from the whole dose curve; as a rule, active = well fitted inhibition curve with a large enough effect; inconclusive = small, poorly fitted or top-dose-only effect; inactive = no such curve, though single readings can be large or run the other way.

Target: Cytochrome P450 2D6 (Homo sapiens) (UniProt P10635)
Chain of UniProt P10635 (P10635 whole entry, looked up): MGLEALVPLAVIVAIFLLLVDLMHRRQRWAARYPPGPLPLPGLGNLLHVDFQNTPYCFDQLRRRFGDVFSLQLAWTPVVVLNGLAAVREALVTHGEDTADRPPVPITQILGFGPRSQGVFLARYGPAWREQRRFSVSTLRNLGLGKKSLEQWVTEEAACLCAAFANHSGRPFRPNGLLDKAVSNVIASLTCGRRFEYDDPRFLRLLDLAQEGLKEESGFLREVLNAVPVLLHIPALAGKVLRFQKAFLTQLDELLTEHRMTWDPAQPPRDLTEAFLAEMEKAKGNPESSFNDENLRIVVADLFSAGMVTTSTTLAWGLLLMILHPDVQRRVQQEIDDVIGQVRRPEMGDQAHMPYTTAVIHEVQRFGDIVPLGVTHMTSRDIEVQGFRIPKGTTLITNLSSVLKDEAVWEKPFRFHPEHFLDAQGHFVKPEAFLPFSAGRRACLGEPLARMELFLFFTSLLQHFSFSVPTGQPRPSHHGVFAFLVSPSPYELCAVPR
Assay: qHTS Assay for Inhibitors and Substrates of Cytochrome P450 2D6 (AID 891);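 note: luciferin methyl ether substrate demethylated by CYP2D6 with NADPH regeneration; nearly all actives have a fitted effect of over 60% in size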
Conditions: recombinant CYP2D6, luciferin-ME EGE luminescence; activity change, negative = inhibition: at 57.1 µM (top of the series)
In short: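 Human CYP2D6 (5 nM) with 30 uM Luciferin-ME EGE (at Km) in 100 mM KPO4, compound preincubated 10 min, then NADPH regeneration system for 60 min at room temperature. Luciferin read by luminescence; normalized to 1.43 uM quinidine.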
Potency is the fitted concentration of half-maximal effect; tags give direction and shape of the fitted curve or compound fluorescence and quenching.

Structure (SMILES) | Potency
Oc1ccc(Cc2nccc3cc(O)c(O)cc23)cc1O | active: 1.26 µM
Cc1ccc(C)c(C(=N)c2ccccc2Cc2ccccc2)c1 | inconclusive [inhibitor, single point]
Nc1nc(N)c(CCCCc2ccccc2)c(N)n1 | inconclusive [inhibitor, partial curve]
O=C1CCC(c2ccccc2)=NN1c1nc2ccccc2s1 | inconclusive [inhibitor, partial curve]
Nc1nc(SC/C=C\c2ccccc2)c2[nH]cnc2n1 | inconclusive [inhibitor, single point]
O=C1C(=O)c2ccccc2C(O)=C1C(C1=C(O)c2ccccc2C(=O)C1=O)c1ccc(Cl)cc1 | inconclusive [inhibitor, partial curve]
Oc1ccccc1CNCc1ccccc1O | inconclusive [inhibitor, partial curve]
NCCSc1nc2ccccc2s1 | inconclusive [inhibitor, partial curve]

System: not listed separately
Assay: qHTS Assay for Identification of Small Molecule Antagonists for NFkB Signaling Pathway (AID 895; active = well fitted inhibition curve with a large enough effect in the signal ratio, with a control signal flat, not every such curve was filed as active; inconclusive = small, poorly fitted or top-dose-only effect, or effect the other way, or a change in a side signal; the % refers to the signal ratio; for activity change, negative = inhibition: % is set by controls: 0 for no effect and ±100 for the full control effect)
Conditions: NFkB beta-lactamase reporter cells, FRET ratio 460/530, stimulated with 10 pM TNF alpha; activity change, negative = inhibition: at 38.3 µM (top of the series)
In short: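 Beta-lactamase reporter read-out (460 and 530 nm emission ratio, 405 nm excitation, 2 hrs substrate loading RT) after 5 hr stimulation with 10 pM TNF alpha in compound-treated NFkB-bla ME-180 cells in low-serum medium.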

Structure (SMILES) | activity change, negative = inhibition | Potency
CC(=O)O[C@]1(C(C)=O)CC[C@@H]2[C@@H]3C=C(Cl)C4=CC(=O)[C@H]5C[C@@H]5[C@]4(C)[C@H]3CC[C@]21C | inconclusive: -40.4% | –
CN1[C@@H]2CC[C@H]1CC(NC(=O)c1nn(C)c3ccccc13)C2 (stereo partly specified) | inconclusive: -27% | –
COC(=O)[C@H](N)Cc1ccc(Cl)cc1 | inconclusive: -31.4% | –
C=CCN1CCc2c(cc(O)c(O)c2Cl)[C@H](c2ccccc2)C1 | – | active: 12.6 µM

Target: Cytochrome P450 2C19 (Homo sapiens) (UniProt P33261)
Chain of UniProt P33261 (P33261 whole entry, looked up): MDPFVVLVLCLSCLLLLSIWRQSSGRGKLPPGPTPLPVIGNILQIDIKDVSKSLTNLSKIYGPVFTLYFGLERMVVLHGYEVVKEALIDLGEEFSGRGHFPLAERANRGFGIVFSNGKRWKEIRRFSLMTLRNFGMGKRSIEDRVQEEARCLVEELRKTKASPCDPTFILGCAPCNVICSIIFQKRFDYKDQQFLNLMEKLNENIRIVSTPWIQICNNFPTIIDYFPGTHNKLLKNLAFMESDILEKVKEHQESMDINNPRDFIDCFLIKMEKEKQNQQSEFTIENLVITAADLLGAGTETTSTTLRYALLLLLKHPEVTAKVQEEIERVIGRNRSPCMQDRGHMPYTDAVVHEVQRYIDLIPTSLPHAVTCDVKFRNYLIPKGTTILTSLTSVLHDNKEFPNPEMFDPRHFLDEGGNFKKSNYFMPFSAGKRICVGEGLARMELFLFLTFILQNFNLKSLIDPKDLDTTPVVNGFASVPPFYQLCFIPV
Assay: qHTS Assay for Inhibitors and Substrates of Cytochrome P450 2C19 (AID 899); note: nearly all actives have a fitted effect of over 60% in size
Conditions: recombinant CYP2C19, luciferin-H EGE luminescence; series mostly up to 11.4 µM
In short: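 5nM enzyme + 10uM Luciferin-H EGE (=KM), 50mM KPO4; cpd pin-transferred, 10 min 37C; NADPH regen, 60 min 37C; stopped w/ luciferin detection reagent, 20 min; luminescence. Normalized to 57uM ketoconazole (AC100).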

Structure (SMILES) | Potency
N=C(N)SCc1cccc2c(=O)cc(-c3ccccc3)oc12 | inconclusive [inhibitor, partial curve]
Cn1ncc2c(NCCc3ccccc3)nc(Cl)nc21 | active: 0.126 µM
NCCSc1nc2ccccc2s1 | active: 1.58 µM

System: not listed separately
Assay: qHTS Assay for Identification of Small Molecule Agonists for Hypoxia Response Element Signaling Pathway (AID 914; active = well fitted activation curve with a large enough effect in the signal ratio, with a control signal flat, not every such curve was filed as active; inconclusive = small, poorly fitted or top-dose-only effect, or effect the other way, or a change in a side signal; the % refers to the signal ratio; for activation: top concentration of the series differs between compounds; % of control where 0% means no effect)
Conditions: ME-180 (cervical carcinoma) HRE-bla reporter, beta-lactamase ratio, CoCl2, 17 h; activation: hits give high values
In short: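 In Opti-MEM containing 0.5% dialyzed FBS and 10 mM HEPES, ME-180 HRE-bla cells received a compound titration and EC50 CoCl2. They were incubated 17 hours, then CCF4-loaded 2.5 hours at room temperature before ratio reading.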

Structure (SMILES) | Potency | activation
COCCn1c(=O)c(CCc2ccccc2)nc2cnc(Nc3ccccc3)nc21 | inconclusive [fluorescent, single point] | –
COc1cccc(Cn2c(=O)c(-c3cccs3)nc3cnc(OCc4ccccc4)nc32)c1 | inconclusive [activator, full curve] | –
O=c1c(-c2ccc(Cl)cc2)nc2cnc(Nc3ccccc3)nc2n1C[C@H]1CCCO1 | active: 0.126 µM | –
CN(C)c1ncc2nc(-c3ccccc3)c(=O)n(-c3ccccc3)c2n1 | active: 0.631 µM | –
O=S(=O)(NCCNC/C=C\c1ccc(Br)cc1)c1cccc2cnccc12 | inconclusive [inhibitor, partial curve] | –
Cn1ncc2c(NCCc3ccccc3)nc(Cl)nc21 | – | inconclusive: -41.5%
O=c1c(-c2cc(F)cc(F)c2)nc2cnc(N3CCOCC3)nc2n1C1CC1 | active: 1.58 µM | –
O=C(CSc1nc2ccccc2s1)c1sc2sc3ccccc3[n+]2c1O | – | inactive: -16.9%
O=c1c(-c2ccc(F)cc2)nc2cnc(N3CCOCC3)nc2n1C[C@H]1CCCO1 | – | inconclusive: 29.5%
C/C(C[n+]1ccccc1)=N\N=C(N)N | – | inactive: 3.43%
O=C1CCC(c2ccccc2)=NN1c1nc2ccccc2s1 | – | inactive: -16.7%
Oc1cccnc1CN1CCCCC1 | inconclusive [inhibitor, single point] | –
COC(=O)[C@H](N)Cc1ccc(Cl)cc1 | – | inconclusive: -25.1%
COc1ccc(-n2c(C)c(C(C)=O)c3cc(O)ccc32)cc1 | inconclusive [inhibitor, full curve] | –
Cn1cc(-c2nc3cnc(N4CCNCC4)nc3n(CCC#N)c2=O)c2ccccc21 | active: 3.16 µM | –
Cn1c(=O)c(-c2cccs2)nc2cnc(N3CCOCC3)nc21 | – | inactive: 11.8%
O=c1c2ccccc2sc2c(CO)ccc(NCCN3CCCCC3)c12 | inconclusive [inhibitor, single point] | –
COc1ccccc1CCn1c(=O)c(-c2cccc(F)c2)nc2cncnc21 | – | inactive: -1.08%
Oc1ccccc1CNCc1ccccc1O | inconclusive [inhibitor, partial curve] | –
N#CCCn1c(=O)c(-c2cccs2)nc2cnc(OCc3ccccc3)nc21 | active: 3.16 µM | –
NCCSc1nc2ccccc2s1 | – | inconclusive: 5.9%
